Data reported in the supplement of paper PMC10681739.
± gives the standard deviation of the averaged measurements. In all, about 4,100 sequences were measured (“arbitrary fluorescence units”: median about 780, highest 2% from about 22,000 on). Some of the results follow.

biological target: T1, ETS1 (UniProt P14921); assay: ETS1 binding intensity (PBM fluorescence), ETS1 alone (arbitrary fluorescence units); higher = stronger binding; conditions: ETS1 concentration 1 nM; RUNX1 concentration 0 nM
T1 sequence: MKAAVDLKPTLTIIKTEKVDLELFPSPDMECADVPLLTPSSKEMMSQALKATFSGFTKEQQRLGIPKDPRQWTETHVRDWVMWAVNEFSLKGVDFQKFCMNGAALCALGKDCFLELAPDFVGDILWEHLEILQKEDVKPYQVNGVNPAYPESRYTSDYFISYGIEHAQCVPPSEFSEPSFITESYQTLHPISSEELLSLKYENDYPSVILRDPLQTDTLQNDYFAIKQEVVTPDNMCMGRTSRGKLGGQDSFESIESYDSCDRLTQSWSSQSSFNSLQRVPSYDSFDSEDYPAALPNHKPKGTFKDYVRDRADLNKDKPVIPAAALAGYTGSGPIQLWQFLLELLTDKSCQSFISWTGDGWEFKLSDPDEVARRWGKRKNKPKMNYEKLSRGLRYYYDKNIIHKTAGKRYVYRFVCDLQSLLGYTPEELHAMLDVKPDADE
Procedure: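 gcPBM on 36-bp genomic-derived probes (partner site mutated) containing one ETS1 site and no RUNX1 site. Recombinant human ETS1 (1 nM) was incubated alone or with RUNX1 (25 nM) and detected by anti-ETS1 antibody fluorescence. Values are medians over 4 replicate spots (not normalised). The probes sit in constant array flanks that are not printed.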

Sequence | ETS1 binding intensity
AGAGCTTGGGGGGAGGAGCCCTCTTCCTTCCTGCCC | 1050
TGTCTTCAGGAAGTGTAGCAGGTGTTGGGGTCAAGC | 1160 ± 47
TTCATCTACTTCCCGCCACACCTACAGAGAAGCCCA | 2480
AATATCCTGTATGTCATGCTTAAAAAGTCACAAAAC | 18100
CAAAAGTGGATGATGAACATTAGAATCAGGAAATGG | 488
GAAGCGCTGGGCGGAAGTGGCTGTGACTTTGCCCTT | 3970
GGGTTTTGTAGTTAGCAAGTTCCTGCTTCCGTCGCA | 1350
CTTCATCAACCCATCCTGTCTTGTAGTTAAGTCAAG | 1490
CTCCCGTCCCCTCAGAGTGCAAGGATGTGAACAAGG | 391
GGGCTTCCGGCTGAACCCATGGCTGAGGGCTGTGCT | 11300
TTTCTTGCCACTAGGGGACGCTACTTCCCTGAGGCT | 353
AGTGCTTTGCCGTATAATACTGCACATCCTGTGTTG | 1300
TGAGGTTGGGGTTAGGCAGGAGGAAGCCGTTTGTAG | 518
AGGCAGGGAAGTGGCGCAGAGGAGAGCACAGGACAC | 431
GCGAGCACTTCCGGTGTGTGAGCCTGCTGTTGCTAC | 32800
GGACTTCCTGAAGCCAGATCGGTTTATCACAGTCAG | 9710
GGACGCTTCCGGTGGAAGGGAGCTGTTACGGGGCTT | 32900
TTGCATGTAGTTTAGGCTGTAGTTTCCTCCTGTAGT | 534

Sequence | ETS1 binding intensity
ACTAGCGTCGCCGCGCCAAGGTTCCGGTCCGGGTCT | 1020
CCCTGGGGTTCGCGGGCGAAGCGCTTCCTCTAGCTG | 401
AGCGAAGCGCCTACGGCAGCCGGAAGCGAAAGTCTC | 6300
TAGCCTTGTGTTGGAAGCAAATCCTGTCTCAGAGGG | 414 ± 34
GGCGTTCTGGGCGGCGGCGCGTTTCCCCGGCTCCGT | 323
TTTAATTCTGTGATTAGAAGTAAAAGGAAGTAAAGG | 487
CTGGGGCTGGGACCCAGTTCCTGTACAGGAAGACAT | 3020
CCATTTCCTGATTCTAATGTTCATCATCCACTTTTG | 10900
GAGACTCCCGCCACCTTGGCCGTTTCCCCGGCTCCA | 333
TCCGGCCCCGGAGCGCTGTGAACTCCATTTCCCAGA | 351
GGCCTACGGGAGGGCCCGCCTTGGCTGCTTCCGCAG | 310
AAATGAGCGGAGGTTGAGCCCTACTTCCGGTGGTGC | 14100
CGGTGCACCCCAGCTACGGAACAGGATGTGGAGAAC | 1510
AGAGGATTGTAGGCTCACAAGCCAACATCCTGACAG | 515
GCAGGACTCCAGGAAGCCCGCGCAGCCGCCAAAAGC | 552
GTGCGAGGGCGATAAGTGGAAGGAAGCAGCGCATGG | 403
AGTGGCTACCACTTCCTTCTCTTACGACAGTTCCTT | 2590
